# Reference: the supplement of paper PMC8728848
# Some of the results follow.
# B1: CFEM-SCL (Saccharomyces cerevisiae), O13547 (protein)
# chain: MRATTLLSSVVSLALLSKEVLATPPACLLACVAQVGKSSSTCDSLNQVTCYCEHENSAVKKCLDSICPNNDADAAYSAFKSSCSEQNASLGD
# How the values were obtained:
# Assay in all cases: glycan array binding signal (z-score within array); higher = stronger binding
# Conditions in all cases: glycan notation: IUPAC condensed, linker removed
# Neu5Ac(a2-3)GalNAc = target: Neu5Ac(a2-3)GalNAc
# How it was run: (§1)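 Glycan array data were curated from 3228 arrays in the Consortium for Functional Glycomics database and kept only where the protein sequence was available. Glycan names were converted to IUPAC-condensed notation, and columns mapping to the same glycan were averaged. The binding signal is a within-array Z-score, averaged across arrays of the same protein sequence at different concentrations or buffers and across linkers. Negative Z-scores can be read as non-binding.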
# [1] = target: Neu5Ac(a2-3)GalNAc(b1-4)GlcNAc
# How it was run: as §1
# [2] = target: Neu5Ac(a2-3)[GalNAc(b1-4)]Gal(b1-4)Glc
# How it was run: as §1
# [3] = target: Neu5Ac(a2-3)[GalNAc(b1-4)]Gal(b1-4)GlcNAc
# How it was run: as §1
# [4] = target: Neu5Ac(a2-3)[GalNAc(b1-4)]Gal(b1-4)GlcNAc(b1-3)GalNAc
# How it was run: as §1
# [5] = target: Neu5Ac(a2-3)[Neu5Ac(a2-6)]GalNAc
# How it was run: as §1
# Neu5Ac(a2-6)Gal = target: Neu5Ac(a2-6)Gal
# How it was run: as §1
# [6] = target: Neu5Ac(a2-6)Gal(b1-3)GlcNAc(b1-3)[Gal(b1-4)GlcNAc(b1-6)]Gal(b1-4)Glc
# How it was run: as §1
# Neu5Ac(a2-6)Gal(b1-4)Glc = target: Neu5Ac(a2-6)Gal(b1-4)Glc
# How it was run: as §1
# [7] = target: Neu5Ac(a2-6)Gal(b1-4)GlcNAc
# How it was run: as §1
# [8] = target: Neu5Ac(a2-6)Gal(b1-4)GlcNAc(b1-2)Man
# How it was run: as §1
# [9] = target: Neu5Ac(a2-6)Gal(b1-4)GlcNAc(b1-2)Man(a1-3)Man(b1-4)GlcNAc(b1-4)GlcNAc
# How it was run: as §1
# [10] = target: Neu5Ac(a2-6)Gal(b1-4)GlcNAc(b1-2)Man(a1-3)[Gal(b1-4)GlcNAc(b1-2)Man(a1-6)]Man(b1-4)GlcNAc(b1-4)GlcNAc
# How it was run: as §1
# [11] = target: Neu5Ac(a2-6)Gal(b1-4)GlcNAc(b1-2)Man(a1-3)[GlcNAc(b1-2)Man(a1-6)]Man(b1-4)GlcNAc(b1-4)GlcNAc
# How it was run: as §1
# [12] = target: Neu5Ac(a2-6)Gal(b1-4)GlcNAc(b1-2)Man(a1-3)[GlcNAc(b1-4)][Neu5Ac(a2-6)Gal(b1-4)GlcNAc(b1-2)Man(a1-6)]Man(b1-4)GlcNAc(b1-4)GlcNAc
# How it was run: as §1
# [13] = target: Neu5Ac(a2-6)Gal(b1-4)GlcNAc(b1-2)Man(a1-3)[Man(a1-6)]Man(b1-4)GlcNAc(b1-4)GlcNAc
# How it was run: as §1
# [14] = target: Neu5Ac(a2-6)Gal(b1-4)GlcNAc(b1-2)Man(a1-3)[Neu5Ac(a2-3)Gal(b1-4)GlcNAc(b1-2)Man(a1-6)]Man(b1-4)GlcNAc(b1-4)GlcNAc
# How it was run: as §1
# [15] = target: Neu5Ac(a2-6)Gal(b1-4)GlcNAc(b1-2)Man(a1-3)[Neu5Ac(a2-6)Gal(b1-4)GlcNAc(b1-2)Man(a1-6)]Man(b1-4)GlcNAc(b1-4)GlcNAc
# How it was run: as §1
# [16] = target: Neu5Ac(a2-6)Gal(b1-4)GlcNAc(b1-2)Man(a1-3)[Neu5Ac(a2-6)Gal(b1-4)GlcNAc(b1-2)Man(a1-6)]Man(b1-4)GlcNAc(b1-4)[Fuc(a1-6)]GlcNAc
# How it was run: as §1
# [17] = target: Neu5Ac(a2-6)Gal(b1-4)GlcNAc(b1-2)Man(a1-6)Man(b1-4)GlcNAc(b1-4)GlcNAc
# How it was run: as §1
# [18] = target: Neu5Ac(a2-6)Gal(b1-4)GlcNAc(b1-2)Man(a1-6)[Gal(b1-4)GlcNAc(b1-2)Man(a1-3)]Man(b1-4)GlcNAc(b1-4)GlcNAc
# How it was run: as §1
# [19] = target: Neu5Ac(a2-6)Gal(b1-4)GlcNAc(b1-2)Man(a1-6)[GlcNAc(b1-2)Man(a1-3)]Man(b1-4)GlcNAc(b1-4)GlcNAc
# How it was run: as §1
# [20] = target: Neu5Ac(a2-6)Gal(b1-4)GlcNAc(b1-2)Man(a1-6)[Man(a1-3)]Man(b1-4)GlcNAc(b1-4)GlcNAc
# How it was run: as §1
# [21] = target: Neu5Ac(a2-6)Gal(b1-4)GlcNAc(b1-2)[Neu5Ac(a2-6)Gal(b1-4)GlcNAc(b1-4)]Man(a1-3)[GlcNAc(b1-4)][Neu5Ac(a2-6)Gal(b1-4)GlcNAc(b1-2)[Neu5Ac(a2-6)Gal(b1-4)GlcNAc(b1-6)]Man(a1-6)]Man(b1-4)GlcNAc(b1-4)GlcNAc
# How it was run: as §1
# [22] = target: Neu5Ac(a2-6)Gal(b1-4)GlcNAc(b1-2)[Neu5Ac(a2-6)Gal(b1-4)GlcNAc(b1-4)]Man(a1-3)[GlcNAc(b1-4)][Neu5Ac(a2-6)Gal(b1-4)GlcNAc(b1-4)Man(a1-6)]Man(b1-4)GlcNAc(b1-4)GlcNAc
# How it was run: as §1
# [23] = target: Neu5Ac(a2-6)Gal(b1-4)GlcNAc(b1-2)[Neu5Ac(a2-6)Gal(b1-4)GlcNAc(b1-6)]Man(a1-6)[Neu5Ac(a2-6)Gal(b1-4)GlcNAc(b1-2)Man(a1-3)][GlcNAc(b1-4)]Man(b1-4)GlcNAc(b1-4)GlcNAc
# How it was run: as §1
# [24] = target: Neu5Ac(a2-6)Gal(b1-4)GlcNAc(b1-3)Gal(b1-3)GlcNAc
# How it was run: as §1
# [25] = target: Neu5Ac(a2-6)Gal(b1-4)GlcNAc(b1-3)Gal(b1-4)GlcNAc
# How it was run: as §1
# [26] = target: Neu5Ac(a2-6)Gal(b1-4)GlcNAc(b1-3)Gal(b1-4)GlcNAc(b1-2)Man(a1-3)[Neu5Ac(a2-6)Gal(b1-4)GlcNAc(b1-3)Gal(b1-4)GlcNAc(b1-2)Man(a1-6)]GalNAc
# How it was run: as §1
# [27] = target: Neu5Ac(a2-6)Gal(b1-4)GlcNAc(b1-3)Gal(b1-4)GlcNAc(b1-3)Gal(b1-4)GlcNAc
# How it was run: as §1
# [28] = target: Neu5Ac(a2-6)Gal(b1-4)GlcNAc(b1-3)Gal(b1-4)GlcNAc(b1-3)Gal(b1-4)GlcNAc(b1-2)Man(a1-3)[Neu5Ac(a2-6)Gal(b1-4)GlcNAc(b1-3)Gal(b1-4)GlcNAc(b1-3)Gal(b1-4)GlcNAc(b1-2)Man(a1-6)]GalNAc
# How it was run: as §1
# [29] = target: Neu5Ac(a2-6)Gal(b1-4)GlcNAc(b1-3)Gal(b1-4)GlcNAc(b1-3)GalNAc
# How it was run: as §1
# [30] = target: Neu5Ac(a2-6)Gal(b1-4)GlcNAc(b1-3)Gal(b1-4)GlcNAc(b1-3)[Neu5Ac(a2-6)Gal(b1-4)GlcNAc(b1-3)Gal(b1-4)GlcNAc(b1-6)]GalNAc
# How it was run: as §1
# [31] = target: Neu5Ac(a2-6)Gal(b1-4)GlcNAc(b1-3)Gal(b1-4)GlcNAc(b1-6)[Gal(b1-3)]GalNAc
# How it was run: as §1
# [32] = target: Neu5Ac(a2-6)Gal(b1-4)GlcNAc(b1-3)Gal(b1-4)[Fuc(a1-3)]GlcNAc(b1-3)Gal(b1-4)[Fuc(a1-3)]GlcNAc
# How it was run: as §1
# [33] = target: Neu5Ac(a2-6)Gal(b1-4)GlcNAc(b1-3)GalNAc
# How it was run: as §1
# [34] = target: Neu5Ac(a2-6)Gal(b1-4)GlcNAc(b1-3)[Neu5Ac(a2-6)Gal(b1-4)GlcNAc(b1-6)]GalNAc
# How it was run: as §1
# [35] = target: Neu5Ac(a2-6)Gal(b1-4)GlcNAc(b1-6)GalNAc
# How it was run: as §1
binder,measurement,setting,value
B1,glycan array binding signal (z-score),Neu5Ac(a2-3)GalNAc,-0.32
same,glycan array binding signal (z-score),[1],-0.302
same,glycan array binding signal (z-score),[2],-0.229
same,glycan array binding signal (z-score),[3],-0.297
same,glycan array binding signal (z-score),[4],-0.189
same,glycan array binding signal (z-score),[5],-0.313
same,glycan array binding signal (z-score),Neu5Ac(a2-6)Gal,-0.191
same,glycan array binding signal (z-score),[6],-0.277
same,glycan array binding signal (z-score),Neu5Ac(a2-6)Gal(b1-4)Glc,-0.298
same,glycan array binding signal (z-score),[7],-0.282
same,glycan array binding signal (z-score),[8],-0.345
same,glycan array binding signal (z-score),[9],-0.209
same,glycan array binding signal (z-score),[10],-0.318
same,glycan array binding signal (z-score),[11],-0.336
same,glycan array binding signal (z-score),[12],-0.223
same,glycan array binding signal (z-score),[13],-0.31
same,glycan array binding signal (z-score),[14],-0.351
same,glycan array binding signal (z-score),[15],-0.198
same,glycan array binding signal (z-score),[16],-0.246
same,glycan array binding signal (z-score),[17],-0.353
same,glycan array binding signal (z-score),[18],-0.165
same,glycan array binding signal (z-score),[19],-0.279
same,glycan array binding signal (z-score),[20],-0.271
same,glycan array binding signal (z-score),[21],-0.247
same,glycan array binding signal (z-score),[22],-0.268
same,glycan array binding signal (z-score),[23],-0.314
same,glycan array binding signal (z-score),[24],-0.289
same,glycan array binding signal (z-score),[25],-0.309
same,glycan array binding signal (z-score),[26],-0.057
same,glycan array binding signal (z-score),[27],-0.319
same,glycan array binding signal (z-score),[28],1.21
same,glycan array binding signal (z-score),[29],-0.313
same,glycan array binding signal (z-score),[30],-0.146
same,glycan array binding signal (z-score),[31],0.198
same,glycan array binding signal (z-score),[32],-0.25
same,glycan array binding signal (z-score),[33],-0.011
same,glycan array binding signal (z-score),[34],-0.265
same,glycan array binding signal (z-score),[35],-0.244
